PubChem BioAssay AID624296 (National Center for Advancing Translational Sciences (NCATS), 2012)
Out of some 350,000 compounds screened, about 9,900 (2.8%) were called active. The shares of active, inactive and inconclusive entries below differ from those in the screen. Calls come from the whole dose curve; as a rule, active = well fitted activation curve with a large enough effect; inconclusive = small, poorly fitted or top-dose-only effect; inactive = no such curve, though single readings can be large or run the other way. Potencies of inconclusive entries are left out as doubtful fits.

assay: A quantitative high throughput screen for small molecules that induce DNA re-replication in MCF 10a normal breast cells.; note: nearly all actives have a fitted effect of over 50% in size; for activity, positive = re-replication: % of control where 0% means no effect; settings: MCF 10A DNA re-replication, Hoechst nuclear intensity, 48 h; activity, positive = re-replication: at 46.1 µM (top of the series)
Potency is the fitted concentration of half-maximal effect; tags give direction and shape of the fitted curve.

SMILES | Potency | activity, positive = re-replication
CC(C)[C@H]1CC2C3CC=C4C[C@@H](O)CC[C@]4(C)C3CC[C@]2(C)[C@H]1O (stereo partly specified) | active: 18.4 µM | 
COP(C)(=O)c1c(C)nn(-c2ccccc2)c1C (stereo unspecified) | inconclusive [activator, single point] | 
COc1ccc(CN2CCN(C(=O)Cc3ccccc3)CC2)cc1Br | inactive | 
Brc1ccccc1-c1ccccc1 | inconclusive [activator, full curve, poor fit] | 
CCCCCn1c(=O)c(C(=O)NCc2ccccc2)c(O)c2ccccc21 | inconclusive [activator, single point] | 
CNC(=O)Oc1ccc(-c2cn3cc(Cl)ccc3n2)cc1 | inconclusive [activator, partial curve, poor fit] | 
Cc1csc(NC(=O)C(Cl)c2ccccc2)n1 (stereo unspecified) (tested in a mixture with another compound) | inactive | 
O=C(CN1CCOCC1)c1ccc(Br)cc1 | inconclusive [activator, single point] | 
CC1CCN(C(CC(=O)c2ccccc2)C(=O)c2ccccc2)CC1 (stereo unspecified) | active: 3.66 µM | 
Cn1c(O)c(C(=Nc2ccccc2)SCc2ccc(Cl)cc2)c(=O)n(C)c1=O | inconclusive [activator, partial curve] | 
CCc1nc2ccccc2c(=O)n1-c1ccc2ccccc2c1 | inconclusive [activator, single point] | 
N=Cc1c(O)n(-c2ccccc2)c(=O)n(-c2ccccc2)c1=O | inactive | 
Cc1ccc(/C=C2/C(=O)NC(=O)N(CCc3ccc(F)cc3)C2=O)o1 | inconclusive [activator, single point] | 
Nc1ccc2c(c1)Cc1cc([N+](=O)[O-])ccc1-2 | inconclusive [activator, single point] | 
O=C1C2CC=CCC2C(=O)N1SC(Cl)(Cl)Cl (stereo unspecified) | active: 4.22 µM | 
CC1CCC2C(C)C(=O)OC3OC4(C)CCC1C32OO4 (stereo unspecified) | inactive | 
CCCCCn1c(NC(=O)c2ccco2)c(C(=O)OCC)c2nc3ccccc3nc21 | active: 5.8 µM | 
Cc1ccc(Cn2cc(C=O)c3ccccc32)cc1 | inconclusive [activator, single point] | 
O=C(c1ccc(CNS(=O)(=O)c2ccc(Br)cc2)cc1)N1CCC2(CC1)OCCO2 |  | inconclusive: 103% [activator]
Cn1c(O)c(C=NCCCN2CCCC2=O)c(=O)n(C)c1=O | inactive | 
O=C1NC(=O)N(c2ccc3c(c2)OCO3)C(=O)/C1=C/c1ccsc1 | inconclusive [activator, single point] | 
